Assay results from paper PMC7819943, “Rice protein-binding microarrays: a tool to detect cis-acting elements near promoter regions in rice”.
The list shows a part of the results.

Target: T1, OsWOX13 (Oryza sativa, UniProt Q5QMM3 1-267)
T1 sequence: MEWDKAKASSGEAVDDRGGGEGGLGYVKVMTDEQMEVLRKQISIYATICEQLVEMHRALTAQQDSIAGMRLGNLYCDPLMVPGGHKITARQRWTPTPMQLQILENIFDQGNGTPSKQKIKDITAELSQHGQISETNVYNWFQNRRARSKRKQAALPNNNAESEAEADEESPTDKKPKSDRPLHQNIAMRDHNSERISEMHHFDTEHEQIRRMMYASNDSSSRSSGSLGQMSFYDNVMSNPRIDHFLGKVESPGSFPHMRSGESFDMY
Experiment: protein-binding microarray (RPBM); PBS, 2% BSA, 51.3 ng/ul salmon testes DNA, 50 uM zinc acetate, 200 nM TF, 25 C, 1 h; high values mean tight binding
Conditions: protein: recombinant; tags: N-terminal polyhistidine and DsRed monomer fusion (pET32a); label: CyDye5-dUTP incorporated in the synthesized complementary strand; 3' TTTTT single-stranded linker to array surface; dsDNA, one strand shown
Method in brief: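 Transcription factors, each fused N-terminally to a polyhistidine tag and DsRed, were expressed in E. coli BL21-CodonPlus and purified on Ni–NTA. A custom Agilent array was made double-stranded by primer extension with Cy5-dUTP and blocked with 2% BSA. It was incubated with 200 nM protein in PBS, 2% BSA, salmon testes DNA and 50 µM zinc acetate at 25 °C for 1 h, then washed. The binding signal is per-feature fluorescence intensity (arbitrary units) read on an Axon 4000B scanner.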

| Sequence | binding signal |
| --- | --- |
| TGTAACTTAGCACAATTATACTATGTTAAGCTGATTAACCCGGAGTCACCTAGTGCAG | 3490 fluorescence intensity (a.u.) |
| ATTTAATTTTCCTTTTACAGTAAATACCATCACTACCTTTCGGAGTCACCTAGTGCAG | 13900 fluorescence intensity (a.u.) |
| TCTTCACATGAATGATGAAATTGCTAGTAGCATGTCTTCACGGAGTCACCTAGTGCAG | 3410 fluorescence intensity (a.u.) |
| TATTGATGGGCTGCTCATTCTAGTTGGGTCCGACCGGCGTCGGAGTCACCTAGTGCAG | 9430 fluorescence intensity (a.u.) |
| TGCTAATGATAGATTAATTAGACTTAATAAATTTATCTCGCGGAGTCACCTAGTGCAG | 28900 fluorescence intensity (a.u.) |
| GCTGACATATATATGTAAAATAAGTCTATTTTACATCCCTCGGAGTCACCTAGTGCAG | 4370 fluorescence intensity (a.u.) |
| GTGGATTGGATAATTGGACATGGAGACAAAACCCAAACACCGGAGTCACCTAGTGCAG | 24500 fluorescence intensity (a.u.) |
| ACTAAAATGATGACAACAAATCTACGCAGCTGCCTGCTTTCGGAGTCACCTAGTGCAG | 4880 fluorescence intensity (a.u.) |
| ATGTAGACTGGAAAAGATTTGAAGGGAGCAAAACATTCGGCGGAGTCACCTAGTGCAG | 10900 fluorescence intensity (a.u.) |
| AGTGGATTACTAGATTATAGTAATCTGGCTTATAGATTGTCGGAGTCACCTAGTGCAG | 4140 fluorescence intensity (a.u.) |
| TCCGATGATTAATAATCAGCTGTAATCAAAGCTGTTAGCACGGAGTCACCTAGTGCAG | 49200 fluorescence intensity (a.u.) |
| GTCCGTCGTCTAAGTCAAATAATTGATGCCATAAAGCGGACGGAGTCACCTAGTGCAG | 11800 fluorescence intensity (a.u.) |
| TTACGTATGCATGACTAATTGACATATCCATTATATTGGTCGGAGTCACCTAGTGCAG | 20300 fluorescence intensity (a.u.) |
| TTAAGCTGCATAATTGACACAAAATAGATAAGTATTGTAGCGGAGTCACCTAGTGCAG | 20600 fluorescence intensity (a.u.) |
| GAAATAGACACCGAAATTGCCCCAAAACTCTCCCACAAATCGGAGTCACCTAGTGCAG | 6420 fluorescence intensity (a.u.) |
| AAAATAAATTACAGATATAAAATTTATATTTGTGTTATTCCGGAGTCACCTAGTGCAG | 12300 fluorescence intensity (a.u.) |
| CCAGCACGAAATTAATTTTCACCAACGGAGGCTGACACGACGGAGTCACCTAGTGCAG | 6150 fluorescence intensity (a.u.) |
| CGACGGGACACCTTGATTGATGAGGATTAATATCAGAATGCGGAGTCACCTAGTGCAG | 31100 fluorescence intensity (a.u.) |
| TTATTTGTGGCTTGAAGATTGACAGCTTTTGTTGATTGCTCGGAGTCACCTAGTGCAG | 9340 fluorescence intensity (a.u.) |
| GGAAGCACTGATTTGAACATTTCATATACGCATTGTTTCGCGGAGTCACCTAGTGCAG | 3830 fluorescence intensity (a.u.) |
| TTTCTGTTTATATTTCAATTTATTGGTAGTAACAAACCTTCGGAGTCACCTAGTGCAG | 9670 fluorescence intensity (a.u.) |

| Sequence | binding signal |
| --- | --- |
| GTAATGATGATTAATATTCCCTATCATCTAGTCCATGCTTCGGAGTCACCTAGTGCAG | 31400 fluorescence intensity (a.u.) |
| TGTTAAAATTTTGACATTACCAAATTTTAATAAGGTTTATCGGAGTCACCTAGTGCAG | 3950 fluorescence intensity (a.u.) |
| TCATTTAATTGCTATGACAAATAACCACATCTATTTAAAACGGAGTCACCTAGTGCAG | 10600 fluorescence intensity (a.u.) |
| CGCCTATAAATTGATGAAGACACTCGCATGCAAGCTCATTCGGAGTCACCTAGTGCAG | 23300 fluorescence intensity (a.u.) |
| ATTGACAATATTAATAAATTAATTATGTAAAATTTTAATTCGGAGTCACCTAGTGCAG | 13600 fluorescence intensity (a.u.) |
| TCTCCTACCCTAGCTTGCGTTGATTGGAAGGGACGGAGAGCGGAGTCACCTAGTGCAG | 6470 fluorescence intensity (a.u.) |
| CATGGATTGATAGAGTGGAGAGAGAGTAGGGGTAGGTAATCGGAGTCACCTAGTGCAG | 36600 fluorescence intensity (a.u.) |
| TTCAAAATAATTACCTTTTATCGATAAACATGACTTGTAACGGAGTCACCTAGTGCAG | 5690 fluorescence intensity (a.u.) |
| TGATTAATAATTTATTAATAGATCTGGTTGGTTCCTTTGGCGGAGTCACCTAGTGCAG | 35900 fluorescence intensity (a.u.) |
| ACTTACAAATTTTGTACTCAATTGAGATGTGCTTCGATTGCGGAGTCACCTAGTGCAG | 5640 fluorescence intensity (a.u.) |
| AATATTCATTTCAAACTAATTTGGAATTGCTCTCGCTCACCGGAGTCACCTAGTGCAG | 4360 fluorescence intensity (a.u.) |
| ACTAATTTATAATATTAAATATATACTACTTACAAAACTACGGAGTCACCTAGTGCAG | 13800 fluorescence intensity (a.u.) |
| ATTTTAATTGTTTAGAAATCTAGGTGACATAACTCTACGACGGAGTCACCTAGTGCAG | 13300 fluorescence intensity (a.u.) |
| AAAACCAATCAACAAAATACATACAACCTCATGTTCATGTCGGAGTCACCTAGTGCAG | 8060 fluorescence intensity (a.u.) |
| TTAAATTATATTTATATCAAATTATACTTTGATCAATACTCGGAGTCACCTAGTGCAG | 39900 fluorescence intensity (a.u.) |
| TTTGATTTGATCTTTTAGTTTTGGATGTTGGTATGCTGTGCGGAGTCACCTAGTGCAG | 44400 fluorescence intensity (a.u.) |
| TTGTTAACTGCTGATGTGTGACCTGACTGTTAAAAGCTGCCGGAGTCACCTAGTGCAG | 19400 fluorescence intensity (a.u.) |
| ACAACAAATCATCTTTTCGAGGATTTTGCGAAGAATCGATCGGAGTCACCTAGTGCAG | 3340 fluorescence intensity (a.u.) |
| TCTAATTGATAGCTAGCAGTAATGAATTATTTTAATATAGCGGAGTCACCTAGTGCAG | 50200 fluorescence intensity (a.u.) |
| CCATCGCATCTGAAGTATAATTGACGCCATAGGTAGCAAACGGAGTCACCTAGTGCAG | 3310 fluorescence intensity (a.u.) |
| AATCGGTGAATGTATTGATTGGATTTGCGTGTTCATTGTTCGGAGTCACCTAGTGCAG | 29200 fluorescence intensity (a.u.) |
